The other results are listed elsewhere or left out.
Assays:
Assay in all cases: glycan array binding signal (z-score within array); higher = stronger binding
Conditions in all cases: glycan notation: IUPAC condensed, linker removed; mutation: R82H, R255H
[1] = target: Neu5Ac(a2-3)Gal(b1-4)GlcNAc(b1-3)Gal(b1-4)GlcNAc(b1-2)Man(a1-3)[Neu5Ac(a2-3)Gal(b1-4)GlcNAc(b1-3)Gal(b1-4)GlcNAc(b1-2)Man(a1-6)]Man(b1-4)GlcNAc(b1-4)GlcNAc
Procedure, shortened: (§1)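 From the Consortium for Functional Glycomics database, 3228 arrays were curated, keeping only those whose protein sequence was available. Binding is given as a within-array Z-score averaged across arrays sharing a protein sequence and across linkers. Negative Z-scores can be read as non-binding.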

[2] = target: Neu5Ac(a2-3)Gal(b1-4)GlcNAc(b1-3)Gal(b1-4)GlcNAc(b1-3)Gal(b1-4)GlcNAc
Procedure, shortened: as §1

[3] = target: Neu5Ac(a2-3)Gal(b1-4)GlcNAc(b1-3)Gal(b1-4)GlcNAc(b1-3)Gal(b1-4)GlcNAc(b1-2)Man(a1-3)[Neu5Ac(a2-3)Gal(b1-4)GlcNAc(b1-3)Gal(b1-4)GlcNAc(b1-3)Gal(b1-4)GlcNAc(b1-2)Man(a1-6)]GalNAc
Procedure, shortened: as §1

[4] = target: Neu5Ac(a2-3)Gal(b1-4)GlcNAc(b1-3)Gal(b1-4)GlcNAc(b1-3)GalNAc
Procedure, shortened: as §1

[5] = target: Neu5Ac(a2-3)Gal(b1-4)GlcNAc(b1-3)Gal(b1-4)GlcNAc(b1-3)[Neu5Ac(a2-3)Gal(b1-4)GlcNAc(b1-3)Gal(b1-4)GlcNAc(b1-6)]GalNAc
Procedure, shortened: as §1

[6] = target: Neu5Ac(a2-3)Gal(b1-4)GlcNAc(b1-3)Gal(b1-4)GlcNAc(b1-6)[Gal(b1-3)]GalNAc
Procedure, shortened: as §1

[7] = target: Neu5Ac(a2-3)Gal(b1-4)GlcNAc(b1-3)Gal(b1-4)[Fuc(a1-3)]GlcNAc
Procedure, shortened: as §1

[8] = target: Neu5Ac(a2-3)Gal(b1-4)GlcNAc(b1-3)GalNAc
Procedure, shortened: as §1

[9] = target: Neu5Ac(a2-3)Gal(b1-4)GlcNAc(b1-3)[Neu5Ac(a2-3)Gal(b1-4)GlcNAc(b1-6)]GalNAc
Procedure, shortened: as §1

[10] = target: Neu5Ac(a2-3)Gal(b1-4)GlcNAc(b1-6)GalNAc
Procedure, shortened: as §1

[11] = target: Neu5Ac(a2-3)Gal(b1-4)GlcNAc(b1-6)[Gal(b1-3)]GalNAc
Procedure, shortened: as §1

[12] = target: Neu5Ac(a2-3)Gal(b1-4)GlcNAc(b1-6)[Neu5Ac(a2-3)Gal(b1-3)]GalNAc
Procedure, shortened: as §1

[13] = target: Neu5Ac(a2-3)Gal(b1-4)GlcNAc6S
Procedure, shortened: as §1

[14] = target: Neu5Ac(a2-3)Gal(b1-4)[Fuc(a1-3)]GlcNAc
Procedure, shortened: as §1

[15] = target: Neu5Ac(a2-3)Gal(b1-4)[Fuc(a1-3)]GlcNAc(b1-2)Man
Procedure, shortened: as §1

[16] = target: Neu5Ac(a2-3)Gal(b1-4)[Fuc(a1-3)]GlcNAc(b1-3)Gal
Procedure, shortened: as §1

[17] = target: Neu5Ac(a2-3)Gal(b1-4)[Fuc(a1-3)]GlcNAc(b1-3)Gal(b1-4)GlcNAc
Procedure, shortened: as §1

[18] = target: Neu5Ac(a2-3)Gal(b1-4)[Fuc(a1-3)]GlcNAc(b1-3)Gal(b1-4)[Fuc(a1-3)]GlcNAc(b1-3)Gal(b1-4)[Fuc(a1-3)]GlcNAc
Procedure, shortened: as §1

[19] = target: Neu5Ac(a2-3)Gal(b1-4)[Fuc(a1-3)]GlcNAc(b1-3)GalNAc
Procedure, shortened: as §1

[20] = target: Neu5Ac(a2-3)Gal(b1-4)[Fuc(a1-3)]GlcNAc(b1-6)[Gal(b1-3)]GalNAc
Procedure, shortened: as §1

[21] = target: Neu5Ac(a2-3)Gal(b1-4)[Fuc(a1-3)]GlcNAc(b1-6)[Neu5Ac(a2-3)Gal(b1-3)]GalNAc
Procedure, shortened: as §1

[22] = target: Neu5Ac(a2-3)Gal(b1-4)[Fuc(a1-3)]GlcNAc6S
Procedure, shortened: as §1

[23] = target: Neu5Ac(a2-3)Gal6S(b1-4)GlcNAc
Procedure, shortened: as §1

[24] = target: Neu5Ac(a2-3)Gal6S(b1-4)[Fuc(a1-3)]GlcNAc
Procedure, shortened: as §1

Neu5Ac(a2-3)GalNAc = target: Neu5Ac(a2-3)GalNAc
Procedure, shortened: as §1

[25] = target: Neu5Ac(a2-3)GalNAc(b1-4)GlcNAc
Procedure, shortened: as §1

[26] = target: Neu5Ac(a2-3)[GalNAc(b1-4)]Gal(b1-4)Glc
Procedure, shortened: as §1

[27] = target: Neu5Ac(a2-3)[GalNAc(b1-4)]Gal(b1-4)GlcNAc
Procedure, shortened: as §1

[28] = target: Neu5Ac(a2-3)[GalNAc(b1-4)]Gal(b1-4)GlcNAc(b1-3)GalNAc
Procedure, shortened: as §1

[29] = target: Neu5Ac(a2-3)[Neu5Ac(a2-6)]GalNAc
Procedure, shortened: as §1

Neu5Ac(a2-6)Gal = target: Neu5Ac(a2-6)Gal
Procedure, shortened: as §1

[30] = target: Neu5Ac(a2-6)Gal(b1-3)GlcNAc(b1-3)[Gal(b1-4)GlcNAc(b1-6)]Gal(b1-4)Glc
Procedure, shortened: as §1

Neu5Ac(a2-6)Gal(b1-4)Glc = target: Neu5Ac(a2-6)Gal(b1-4)Glc
Procedure, shortened: as §1

[31] = target: Neu5Ac(a2-6)Gal(b1-4)GlcNAc
Procedure, shortened: as §1

[32] = target: Neu5Ac(a2-6)Gal(b1-4)GlcNAc(b1-2)Man
Procedure, shortened: as §1

[33] = target: Neu5Ac(a2-6)Gal(b1-4)GlcNAc(b1-2)Man(a1-3)Man(b1-4)GlcNAc(b1-4)GlcNAc
Procedure, shortened: as §1

[34] = target: Neu5Ac(a2-6)Gal(b1-4)GlcNAc(b1-2)Man(a1-3)[Gal(b1-4)GlcNAc(b1-2)Man(a1-6)]Man(b1-4)GlcNAc(b1-4)GlcNAc
Procedure, shortened: as §1

[35] = target: Neu5Ac(a2-6)Gal(b1-4)GlcNAc(b1-2)Man(a1-3)[GlcNAc(b1-2)Man(a1-6)]Man(b1-4)GlcNAc(b1-4)GlcNAc
Procedure, shortened: as §1

B1: Gal 8 (Mus musculus), Q9JL15 (protein)
chain: MGGSHHHHHHGMASMLSLNNLQNIIYNPIIPYVGTITEQLKPGSLIVIRGHVPKDSERFQVDFQLGNSLKPRADVAFHFNPHFKRSSCIVCNTLTQEKWGWEEITYDMPFRKEKSFEIVFMVLKNKFQVAVNGRHVLLYAHRISPEQIDTVGIYGKVNIHSIGFRFSSASALPHTLGDLQSMETSALGLTQINRENIQKPGKLQLSLPFEARLNASMGPGRTVVIKGEVNTNARSFNVDLVAGKTRDIALHLNPHLNVKAFVRNSFLQDAWGEEERNITCFPFSSGMYFEMIIYCDVREFKVAINGVHSLEYKHRFKDLSSIDTLSVDGDIRLLDVRSW
glycan array binding signal (z-score) [1]: -0.14
glycan array binding signal (z-score) [2]: -0.148
glycan array binding signal (z-score) [3]: 0.079
glycan array binding signal (z-score) [4]: -0.253
glycan array binding signal (z-score) [5]: -0.255
glycan array binding signal (z-score) [6]: -0.256
glycan array binding signal (z-score) [7]: -0.26
glycan array binding signal (z-score) [8]: -0.229
glycan array binding signal (z-score) [9]: -0.262
glycan array binding signal (z-score) [10]: 0.834
glycan array binding signal (z-score) [11]: -0.272
glycan array binding signal (z-score) [12]: -0.275
glycan array binding signal (z-score) [13]: -0.249
glycan array binding signal (z-score) [14]: -0.271
glycan array binding signal (z-score) [15]: -0.258
glycan array binding signal (z-score) [16]: -0.272
glycan array binding signal (z-score) [17]: -0.244
glycan array binding signal (z-score) [18]: -0.253
glycan array binding signal (z-score) [19]: -0.091
glycan array binding signal (z-score) [20]: -0.236
glycan array binding signal (z-score) [21]: -0.18
glycan array binding signal (z-score) [22]: -0.26
glycan array binding signal (z-score) [23]: -0.273
glycan array binding signal (z-score) [24]: -0.279
glycan array binding signal (z-score) (Neu5Ac(a2-3)GalNAc): -0.253
glycan array binding signal (z-score) [25]: -0.268
glycan array binding signal (z-score) [26]: -0.29
glycan array binding signal (z-score) [27]: -0.267
glycan array binding signal (z-score) [28]: -0.242
glycan array binding signal (z-score) [29]: -0.007
glycan array binding signal (z-score) (Neu5Ac(a2-6)Gal): -0.209
glycan array binding signal (z-score) [30]: -0.267
glycan array binding signal (z-score) (Neu5Ac(a2-6)Gal(b1-4)Glc): -0.227
glycan array binding signal (z-score) [31]: -0.267
glycan array binding signal (z-score) [32]: -0.207
glycan array binding signal (z-score) [33]: -0.244
glycan array binding signal (z-score) [34]: -0.272
glycan array binding signal (z-score) [35]: -0.271

From the supplement of paper PMC8728848
